This note sets out measurements from PubChem BioAssay AID1159614 (National Center for Advancing Translational Sciences (NCATS), 2016).

Molecules are shown by their SMILES. Out of some 45,000 compounds screened, about 65 (0.1%) were called active. The call rests on the fitted dose curve; in most records, active means well fitted activation curve with a large enough effect; inconclusive means small, poorly fitted or top-dose-only effect; inactive means no such curve, though single readings can be large or run the other way. This is one part of the list.

For this experiment, the target named is Galactocerebrosidase (Homo sapiens) (UniProt P54803). Put plainly: A Novel Cell-Based Assay to Identify Small Molecules for B -Galactocerebrosidase. Further: 0% is about no effect; nearly all actives have a fitted effect of over 65% in size. Particulars: 145M-Twi-hGALC-G270D cells (Twitcher mouse brain line with human GALC G270D), HMU-beta-Gal fluorescence, 48 h; series mostly up to 57.5 µM; activation: at the top concentration. The method, boiled down: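 Live 145M-Twi cells (Twitcher mouse brain-derived, GALC-null) stably expressing human GALC-G270D, with a wild-type GALC line, were compound-treated. Residual GALC activity was then read as fluorescence from 0.1 mM final HMU-β-gal at pH 5.2; higher signal means activation.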
UniProt P54803, sequence (P54803 whole entry, looked up): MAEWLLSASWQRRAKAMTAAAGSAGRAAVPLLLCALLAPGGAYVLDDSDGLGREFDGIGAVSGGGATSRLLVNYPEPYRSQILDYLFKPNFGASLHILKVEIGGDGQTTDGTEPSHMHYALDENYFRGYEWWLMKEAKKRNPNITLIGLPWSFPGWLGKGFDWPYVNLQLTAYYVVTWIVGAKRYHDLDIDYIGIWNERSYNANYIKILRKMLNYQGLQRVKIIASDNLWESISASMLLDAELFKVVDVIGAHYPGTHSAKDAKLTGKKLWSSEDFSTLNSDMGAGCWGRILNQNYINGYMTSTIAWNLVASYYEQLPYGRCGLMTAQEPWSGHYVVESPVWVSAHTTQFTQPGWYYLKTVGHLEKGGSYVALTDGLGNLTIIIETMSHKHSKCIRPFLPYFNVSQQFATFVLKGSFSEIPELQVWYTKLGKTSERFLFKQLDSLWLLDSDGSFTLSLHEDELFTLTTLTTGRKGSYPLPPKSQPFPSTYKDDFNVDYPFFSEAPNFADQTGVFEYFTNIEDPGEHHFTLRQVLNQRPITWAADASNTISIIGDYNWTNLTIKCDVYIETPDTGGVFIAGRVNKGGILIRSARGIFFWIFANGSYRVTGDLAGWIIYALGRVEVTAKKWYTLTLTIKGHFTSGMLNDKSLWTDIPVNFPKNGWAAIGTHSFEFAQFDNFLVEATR
On to `O=C(NCC1CCN(Cc2ccccc2F)CC1)Nc1ccc(F)c(Cl)c1`, for which the “activation” value was inactive: -18.8%.

For `COc1ccc(-c2nc3sc(CCNS(=O)(=O)c4ccccc4)c(C)n3n2)cc1`, the “activation” value was inactive: -20.1%.

Regarding `O=C1c2[nH]nc(-c3ccc(F)cc3)c2C(c2ccccc2F)N1c1ccccc1` (stereo unspecified), the “activation” value is inactive: -25.5%.

For `Cc1ccc2[nH]c3c(=O)n(CC(=O)Nc4ccc(Br)cc4C)ncc3c2c1`, the “activation” value is inactive: -11.5%.

As for `CSc1ccc(CCNC(=O)CCCn2c(=O)c3cccn3c3ccccc32)cc1`, the “activation” value was inactive: -15.6%.

On to `CCOc1ccc(C(=O)Nc2cc3c(cc2N2CCCC2)n(C)c(=O)c(=O)n3C)cc1OCC`, for which the “activation” value was inactive: -16.7%.

Consider `CSc1ncc2c(n1)-c1ccccc1N(Cc1ccccc1)S2(=O)=O`, for which the “activation” value is inactive: -9.19%.

`Fc1ccc(Nc2nc3ccccc3n3cnnc23)c(F)c1`: the “activation” value was inactive: -24.8%.

On to `CC(C)(C)c1ccc(C(=O)Nc2c(C(=O)c3ccc(F)cc3)oc3ccccc23)cc1`, for which the “activation” value was inactive: -5.88%.

In the case of `Cc1nc2nc(CNC(=O)c3cccc(F)c3)nn2c(C)c1CCC(=O)Nc1cccc(Cl)c1`, the “activation” value was inactive: -12.3%.

In the case of `Cc1nn(C(C)C(=O)Nc2ccccc2C(F)(F)F)c(=O)c2c1sc1ccccc12` (stereo unspecified), the “activation” value is inactive: 17.8%.

Take `Cc1ccc(N(CC(C)C)S(=O)(=O)c2nnc(NC(=O)C(C)C)s2)cc1`: the “activation” value was inactive: -14.3%.

Consider `COc1ccccc1CNC(=O)COCc1cc(-c2cccs2)on1`, for which the “activation” value was inactive: -20.3%.

With `COc1ccc(Oc2nc3c(c(=O)n(Cc4ccc(Br)cc4)c(=O)n3C)n2C)cc1`, the “activation” value was inactive: -18.8%.

With `CCSc1nc2ccccc2c(OCc2ccccc2Cl)c1C(=O)OC`, the “activation” value is inactive: -16.5%.

With `COc1cccc(C(=O)N(Cc2nc(-c3ccc(Cl)cc3)no2)C(C)C)c1OC`, the “activation” value was inactive: -36.2%.

As to `COc1ccc(NC(=O)c2nc(-c3ccc(C)cc3)n3c2CCCCC3)cc1`, the “activation” value is inactive: -26.2%.

Regarding `COc1ccc(-n2ccnc(NCCc3ccccc3)c2=O)cc1OC`, the “activation” value was inactive: -7.78%.

Turning to `O=C(c1ccc(F)cc1)n1nc(-c2cccnc2)nc1NCc1ccccc1`, the “activation” value was inactive: -11.4%.

Regarding `CCN(C(=O)C1CCN(S(=O)(=O)c2c(C)noc2/C=C/c2ccc(C)cc2)CC1)c1cccc(C)c1`, the “activation” value is inactive: -13.3%.

With `CCOc1ccc(-c2nonc2NC(=O)c2oc3ccc(CC)cc3c2C)cc1`, the “activation” value is inactive: 4.41%.

Turning to `CN1CCN(CCNC(=O)c2cnn(-c3ccc(Cl)cc3)c2C2CCN(C(=O)OC(C)(C)C)CC2)CC1`, the “activation” value is inactive: -13.4%.

On to `Cc1ccc(CNC(=O)c2cnc3c(-c4ccc(F)cc4)c(C)nn3c2C)o1`, for which the “activation” value is inactive: -10.6%.

Take `COc1ccc(Cl)cc1NC(=O)c1cnc2sc(N3CCOCC3)nn2c1=O`: the “activation” value was inactive: 1.44%.

With `O=C(CCCCCn1c(=O)c2sccc2n(Cc2ccccc2Cl)c1=O)NCc1ccc2c(c1)OCO2`, the “activation” value is inactive: -31.7%.

Regarding `COc1ccc(CCNC(=O)C(C)n2nc(C)c3sc4ccccc4c3c2=O)c(OC)c1` (stereo unspecified), the “activation” value is inactive: -17.4%.

Take `Cc1ccc(S(=O)(=O)Nc2ccc3nc(-c4cccc(Cl)c4)oc3c2)cc1`: the “activation” value was inactive: -8.54%.

Consider `CCC(=O)N1CCc2cc(S(=O)(=O)NC(Cc3ccccc3)C(=O)O)ccc21` (stereo unspecified), for which the “activation” value was inactive: -2.05%.

Take `COc1ccc(NC(=O)CSc2nc3ccccc3c(=O)n2CCC(=O)NC2CCCCC2)c(OC)c1`: the “activation” value was inactive: -6.24%.

Regarding `CCc1ccc(-c2cn3nc(CC)sc3n2)cc1`, the “activation” value is inactive: -11.3%.

Turning to `Cc1cccc(NC(=O)CSC2=Nc3ccccc3C3=NC(CCC(=O)NCc4ccco4)C(=O)N23)c1` (stereo unspecified), the “activation” value is inactive: -18%.

Regarding `COc1cc(OC)c(NC(=O)Cn2ncn3c(cc4cc(C)ccc43)c2=O)cc1Cl`, the “activation” value was inactive: -10.6%.

On to `COC(=O)c1sccc1S(=O)(=O)N(CC(=O)Nc1cccc(C)c1C)c1ccc(C)c(C)c1`, for which the “activation” value is inactive: -2.47%.

Consider `COc1ccccc1CNC(=O)Cn1cc2c(n1)-c1c(oc(C(=O)N3CCOCC3)c1C)CC2`, for which the “activation” value was inactive: -1.46%.

Regarding `COc1ccc(Cn2c(CO)cnc2SCc2ccc(C)cc2)cc1`, the “activation” value was inactive: -6.27%.

For the compound `CC(C)(C)OC(=O)N1CCC(c2c(C(=O)N3CCN(Cc4ccccc4)CC3)cnn2-c2cccc(Cl)c2)CC1`, the “activation” value was inactive: -18%.

Take `CC(C)CN(CCNC(=O)CCN1N=C(c2ccccc2)CCC1=O)CC(C)C`: the “activation” value was inactive: -15.7%.

Consider `CCc1ccccc1NC(=O)c1ccc2c(c1)CCCN2S(C)(=O)=O`, for which the “activation” value was inactive: -8.97%.

As to `Cc1ccc(-c2onc(C)c2C)cc1S(=O)(=O)Nc1ccccn1`, the “activation” value was inactive: -7.84%.

For `CCSc1nc2ccccc2c(OCc2ccc(Cl)cc2)c1C(=O)OC`, the “activation” value was inactive: -1.51%.

As to `COc1ccc2c(c1)c1c(c(=O)n(CCc3ccccc3)c(=O)n1Cc1cccc(F)c1)n2C`, the “activation” value was inactive: -1.38%.

As for `CCc1cccc(C)c1NC(=O)CSc1nc2ccccc2nc1Cc1ccccc1`, the “activation” value was inactive: -3.72%.

For the compound `Cc1ccc(NC(=O)c2oc3ccc(S(=O)(=O)N4CCC5(CC4)OCCO5)cc3c2C)cc1Cl`, the “activation” value was inactive: 10.8%.

Regarding `CC(=O)N1CCC(N(CCCOC(C)C)C(=O)Nc2ccc(C)c(C)c2)CC1`, the “activation” value was inactive: -8.77%.

On to `COc1ccc(-c2nc3cc(NC(=O)COc4ccccc4C)ccc3o2)cc1`, for which the “activation” value is inactive: -1.23%.

Turning to `COc1ccc(CCNC(=O)CN(c2ccccc2)S(=O)(=O)N(C)C)cc1OC`, the “activation” value is inactive: 2.06%.

On to `COc1cc(C(c2c(C)[nH][nH]c2=O)c2c(C)[nH][nH]c2=O)ccc1OC(=O)c1ccccc1OC`, for which the “activation” value is inactive: -18.4%.

Turning to `COC(=O)CC1Oc2ccccc2-n2cc(-c3ccc(F)cc3)nc21` (stereo unspecified), the “activation” value is inactive: -8.75%.

Regarding `CCOC(=O)C(C)NC(=O)c1c2c(nc3ccccc13)C(=O)N(C1CCCCC1)C2` (stereo unspecified), the “activation” value is inactive: -10.6%.

In the case of `CCc1c(C)sc2c1CCN(Cc1ccc(C#N)cc1)C2c1ccccc1` (stereo unspecified), the “activation” value was inactive: -7.08%.

For `O=C(CN1C(=O)CCSc2ccc(S(=O)(=O)N3CCCC3)cc21)Nc1cccc(F)c1`, the “activation” value was inactive: -12.8%.

On to `Cc1cccc(N(C)S(=O)(=O)c2cc(-c3cnc(C4CC4)o3)ccc2C)c1`, for which the “activation” value was inactive: -26.3%.

As to `Cc1ccc(Cl)cc1-n1nnc(-c2nc(-c3ccc4c(c3)OCO4)no2)c1C`, the “activation” value was inactive: -25%.

As for `COc1ccc(Nc2nn3c(=O)c4cc5c(cc4nc3s2)OCO5)c(OC)c1`, the “activation” value is inactive: -16.4%.

As to `CCC(=O)N1c2ccc(S(=O)(=O)CCC(=O)Nc3ccc(OC)cc3OC)cc2CC1C` (stereo unspecified), the “activation” value was inactive: -14.3%.

`CCc1ccc(C2c3c(-c4ccccc4O)n[nH]c3C(=O)N2Cc2cccnc2)cc1` (stereo unspecified): the “activation” value was inactive: -10.1%.

Turning to `CCOc1ccc(/C=C/C(=O)Nc2ccc3nc(N(CC)CC)cc(C)c3c2)cc1OC`, the “activation” value is inactive: -19.6%.

With `O=C(CCNS(=O)(=O)c1ccc2c(c1)CCN2C(=O)C1CC1)N1CCN(c2cccc(Cl)c2)CC1`, the “activation” value was inactive: -29.6%.

`CC(C)CCNC(=O)C1CCN(C(=O)c2cc3sccc3n2Cc2ccc(Cl)cc2)CC1`: the “activation” value is inactive: -16.1%.

Take `COc1ccc(-c2nc(CS(=O)CC(=O)NCCc3ccc(Cl)cc3)c(C)o2)cc1OC` (stereo unspecified): the “activation” value was inactive: -20.1%.

With `CCc1ccc(-n2nc(CO)c(C(=O)NC)n2)cc1`, the “activation” value was inactive: 5.02%.
